# According to PubChem BioAssay AID2147 (National Center for Advancing Translational Sciences (NCATS), 2009):
# Screen size: about 230,000 compounds; about 3,600 (1.6%) were called active. Inconclusive results, whose numbers are uncertain, are shown with a selection of clear calls. Calls follow the shape of the dose curve; as a rule, active = well fitted inhibition curve with a large enough effect (not every such curve was filed as active); inconclusive = small, poorly fitted or top-dose-only effect, or another doubt; inactive = no such curve, though single readings can be large or run the other way. Potencies beside an inconclusive call are fits to weak or partial responses and may not hold up.
# Target: Lysine-specific demethylase 4E (Homo sapiens) (UniProt B2RXH2)
# Sequence of UniProt B2RXH2 (B2RXH2 whole entry, looked up, the tested form may be a part): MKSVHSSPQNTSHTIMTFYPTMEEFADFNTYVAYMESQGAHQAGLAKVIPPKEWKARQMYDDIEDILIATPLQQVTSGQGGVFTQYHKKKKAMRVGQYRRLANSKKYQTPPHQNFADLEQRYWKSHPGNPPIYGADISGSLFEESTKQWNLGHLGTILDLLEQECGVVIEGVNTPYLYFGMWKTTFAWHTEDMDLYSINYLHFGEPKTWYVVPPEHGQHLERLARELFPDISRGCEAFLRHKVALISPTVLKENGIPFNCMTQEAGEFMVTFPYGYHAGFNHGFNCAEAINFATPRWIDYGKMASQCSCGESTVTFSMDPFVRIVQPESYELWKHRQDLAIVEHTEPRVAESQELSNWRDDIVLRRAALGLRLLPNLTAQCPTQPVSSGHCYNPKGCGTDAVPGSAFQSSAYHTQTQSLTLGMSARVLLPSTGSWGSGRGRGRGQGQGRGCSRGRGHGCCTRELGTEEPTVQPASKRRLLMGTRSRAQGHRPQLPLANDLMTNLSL
# Assay: qHTS Assay for Inhibitors of Human Jumonji Domain Containing 2E (JMJD2E)
# Conditions: JMJD2E catalytic domain, FDH-coupled NADH fluorescence (FDH is formaldehyde dehydrogenase); series mostly up to 57.1 µM; activity change, negative = inhibition: at the top concentration
# Also: nearly all actives have a fitted effect of over 50% in size.
# 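For activity change, negative = inhibition in this document: 0% = wells with enzyme and -100% = buffer wells without enzyme.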
# Potency is read from the fitted curve at half-maximal effect; tags tell the direction and shape of the fitted curve.
SMILES,Potency,"activity change, negative = inhibition"
CCN(CC)CCNC(=O)Cn1c(C)cc2ccccc2c1=O,"inconclusive: 39.8 µM [inhibitor, single point]",
CCC1(C)Cc2c(sc3nc(NN)n(C)c(=O)c23)CO1 (stereo unspecified),"inconclusive: 31.6 µM [inhibitor, single point]",
CCCCC(=Nc1ccc(N)cc1)C1=C(O)C(C(=O)OC)C(C)(C)CC1=O (stereo unspecified),"inconclusive: 15.8 µM [inhibitor, partial curve]",
COc1cc2c(cc1OC)C(SC)=NC(C)(C)C2,"inconclusive: 39.8 µM [inhibitor, single point]",
CCCS(=O)(=O)c1c(S(=O)(=O)CCC)c2ccccn2c1C(=O)OC,"inconclusive: 28.2 µM [inhibitor, single point]",
CNC[C@H](O)[C@H](O)[C@H](O)[C@H](O)CO,,inactive: 194% [at 25.5 µM]
O=c1nc2n(c3c1oc1ccccc13)Cc1ccccc1-2,"inconclusive: 3.16 µM [inhibitor, full curve]",
O=C(O)c1ccc(/C=C/c2ccc3cccc(O)c3n2)cc1,active: 8.91 µM,
O=C(c1cc2nc(-c3ccccc3)cc(C(F)(F)F)n2n1)N1CCOCC1,"inconclusive: 28.2 µM [inhibitor, single point]",
COc1ccc(CNC(=O)/C=C/c2ccc(S(=O)(=O)NCc3ccco3)cc2)cc1OC,,inactive: 10.3%
Cc1nc(NC(=O)c2ccccc2)sc1-c1csc(Nc2cccc(Cl)c2)n1,"inconclusive: 31.6 µM [inhibitor, single point]",
COc1ccc(N=C2NN=C(c3c(C)[nH]c4ccccc34)CS2)cc1,"inconclusive: 39.8 µM [inhibitor, single point]",
FC(F)(F)C12CC(c3ccccc3)=NCCN1CCN2 (stereo unspecified),"inconclusive: 35.5 µM [inhibitor, single point]",
O=S(=O)(c1ccc(NCc2ccc(F)cc2)nc1)N1CCCC1,"inconclusive: 28.2 µM [inhibitor, partial curve]",
CCN1C(=O)C2C(C1=O)N1C(c3ccccc3)C3C(=O)N(CC)C(=O)C3N1C2c1ccccc1 (stereo unspecified),,inactive: 3.08%
CCOc1cc(/C=C2/C(=N)N3C=CSC3=NC2=O)ccc1OCCCOc1ccccc1C,"inconclusive: 28.2 µM [inhibitor, partial curve]",
Fc1ccccc1Nc1nc2ccccc2n2nnnc12,"inconclusive: 39.8 µM [inhibitor, single point]",
COC(=O)COc1ccc(S(=O)(=O)N2CCCCCC2)cc1,,inactive: 0.228%
CCCCC/C=C\C/C=C\CCCCCCCCCC(N)=O,"inconclusive: 3.98 µM [inhibitor, single point]",
O=c1[nH]c(=O)n([C@H]2C[C@H](O)[C@@H](CO)O2)cc1/C=C/Br,,inactive: 1.5%
COc1ccc(-c2nn(C)c(=O)c3ccccc23)cc1CNC(=O)c1ccco1,"inconclusive: 22.4 µM [inhibitor, partial curve]",
O=c1[nH]c(=O)n(Cc2ccco2)c2c1C(C(F)(F)F)(C(F)(F)F)N=C(c1ccc(F)cc1)N2,,inactive: 3.41%
CS(=O)(=O)NCC(c1cccnc1)N1CCN(c2ccccc2F)CC1 (stereo unspecified),,inactive: 3.27%

SMILES,Potency,"activity change, negative = inhibition"
COc1ccc(-c2cc(-c3ccccc3)c(C#N)c(S(C)(=O)=O)n2)cc1,"inconclusive: 31.6 µM [inhibitor, partial curve]",
COc1ccc(C2=NOC(C(=O)Nc3cccnc3)C2)cc1 (stereo unspecified),,inactive: -22.4%
CC(=O)Nc1cccc(-c2cn3ccccc3n2)c1,"inconclusive: 31.6 µM [inhibitor, partial curve]",
CCn1c2ccccc2c2cc(CN3CCN(Cc4cc(OC)ccc4O)CC3)ccc21,active: 17.8 µM,
CCOC(=O)c1cc(-c2ccccc2)nc2ccc(C)cc12,"inconclusive: 25.1 µM [inhibitor, partial curve]",
CC(NC(=O)Nc1ccc(Cl)c(Cl)c1)C(c1ccccc1)N1CCOCC1 (stereo unspecified),,inactive: 3.94%
CN(Cc1ccccc1)Cc1nc2c(c(=O)n(C)c(=O)n2C)n1CCCc1ccccc1,,inactive: 4.67%
COc1cc(OC)c([C@@H]2O[C@H](CO)[C@@H](O)[C@H](O)[C@H]2O)c(OC)c1,,inactive: 1.17%
CC(=O)c1ccccc1NCC(=O)Nc1ccc(C)cc1,,inactive: 3.54%
O=C(NS(=O)(=O)c1ccccc1)c1ccccc1O,"inconclusive: 20 µM [inhibitor, single point]",
O=C(Nc1ccccc1F)c1cc2c(s1)-c1ccccc1S(=O)(=O)C2,"inconclusive: 35.5 µM [inhibitor, single point]",
CCS(=O)(=O)n1nc(-c2ccc(Cl)cc2)nc1SC,"inconclusive: 35.5 µM [inhibitor, single point]",
Cc1ccc2oc(=O)c(/C=C(\O)c3ccco3)nc2c1,"inconclusive: 31.6 µM [inhibitor, single point]",
CCN(CC)S(=O)(=O)c1ccc(C)c(NC(=O)CSc2nc3ccccc3[nH]2)c1,,inactive: 3.27%
CCOC(=O)c1ccccc1NC1CC(=O)N(c2ccccc2C)C1=O (stereo unspecified),"inconclusive: 31.6 µM [inhibitor, partial curve]",
COC(=O)NC1CCC(CC2CCC(NC(=O)OC)CC2)CC1 (stereo unspecified),,inactive: 3.31%
Oc1c(N=Nc2ccccn2)ccc2ccccc12,"inconclusive: 39.8 µM [inhibitor, single point]",
COc1ccc(OC)c2c(C)cc(N3CCN(C(=O)c4ccc(Cl)cc4)CC3)nc12,"inconclusive: 35.5 µM [inhibitor, partial curve]",
Cc1nc2ccccc2nc1OCC(=O)Nc1cc(C(F)(F)F)ccc1N1CCOCC1,"inconclusive: 20 µM [inhibitor, partial curve]",
Oc1ccc(Nc2nc3ccccc3nc2Nc2ccc(O)cc2)cc1,,inactive: -18%
Clc1ccc(-c2nnc(-c3ccco3)o2)cc1,"inconclusive: 31.6 µM [inhibitor, partial curve]",
CCOC(=O)c1sc(NC(=O)CSc2n[nH]c(-c3ccccc3)n2)c(C#N)c1C,"inconclusive: 14.1 µM [inhibitor, partial curve]",
Cc1cc(=O)oc2cc(OC(C)C(=O)N3CCCc4ccccc43)ccc12 (stereo unspecified),"inconclusive: 28.2 µM [inhibitor, partial curve]",
